About 340 (0.77%) of roughly 44,000 compounds were called active. About 5% were inconclusive and are not listed. Calls follow the shape of the dose curve; as a rule, active = well fitted inhibition curve with a large enough effect; inconclusive = small, poorly fitted or top-dose-only effect; inactive = flat fitted curve, though single readings scatter. The list shows a part of the results.
assay: Acumen qHTS Assay for Inhibitors of the mTORC1 Signaling Pathway in MEF (Tsc2-/-, p53-/-) Cells: Sytravon; details: phospho-rpS6 immunofluorescence/PI, 24 h; series mostly up to 38.3 µM; activity change, negative = inhibition: at the top concentration;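 also: plate controls were DMSO for no effect and rapamycin for full effect; nearly all actives have a fitted effect of over 50% in size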
Outline: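 Cell-based qHTS: Tsc2-/- p53-/- MEF, 24 h cpd, 37 °C; fix/perm, anti-phospho-S6 Alexa-488 + PI; Acumen 488 nm scan; pS6/PI ratio, % positive cells; rapamycin 7.5 nM = inhibition ref; PI count = viability.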

Activity change, negative = inhibition, inactive:
COc1cccc(NC(=O)c2ccc(CNS(=O)(=O)c3ccc4c(c3)C(C)(C)C(=O)N4C)cc2)c1 -14.4%
CC(C)n1c(=O)c2oc3ccccc3c2n(Cc2ccccc2F)c1=O -3.37%
Cc1ccc(-c2nnc(Nc3ccc(O)cc3)c3ccccc23)cc1S(=O)(=O)NCC1CCCO1 (configuration not stated) -12.5%
CCOC(=O)c1cccc(NC(=O)CCNS(=O)(=O)c2cccc3nonc23)c1 -17.4%
CC1=C(c2ccc(Cl)cc2)S(=O)(=O)NC1=NCc1ccc(C)cc1 3.5%
O=C(CSc1nc2c(oc3ccccc32)c(=O)[nH]1)Nc1cccc(Cl)c1 2.62%
CC12CN3CC(C)(CN(C1)C3c1ccc(OCc3ccccc3)cc1)C2=O (configuration not stated) -2.45%
Cc1ccc(CCNC(=O)c2ccc(CSCc3ccc(C)cc3)o2)cc1 8.05%
CCOC(=O)c1ccc(NC(=O)c2cc3c(n(-c4ccc(C)cc4)c2=O)CC(C)(C)CC3=O)cc1 12.8%
Cn1c(C(=O)N2CCC(C(=O)NCCc3ccc(S(N)(=O)=O)cc3)CC2)cc2sccc21 -0.545%
COc1ccc(-c2nc3scc(CCNS(=O)(=O)c4cccc(C(C)=O)c4)n3n2)cc1 -2.87%
CCc1ccc(NC(=O)Cn2c(=O)ccc3cc(S(=O)(=O)N4CCCC4)ccc32)cc1 -1.4%
Cc1ccc(NC(=O)CSc2nnc(C)c(=O)[nH]2)cc1 5.73%
CCOC(=O)c1cccc(Nc2cc(C)nc(C)n2)c1 -12.2%
Cc1nnc2c3ccccc3nc(N3CCN(c4cccc(Cl)c4)CC3)n12 -3.62%
CCOCCCn1c(=N)c(C(=O)NC2CCCC2)cc2c(=O)n3cccc(C)c3nc21 -6.19%
Cc1noc(Cn2c(=O)c3ccccc3n(CC(=O)Nc3ccccc3C(F)(F)F)c2=O)n1 -6.53%
CCc1ccc(NC(=O)c2oc3c(c2C)-c2[nH]ncc2CC3)cc1 2.11%
COc1ccccc1CNC(=O)CN1C(=O)CCCc2ccccc21 -0.696%
CCCCOc1ccc(C2c3c(oc4ccccc4c3=O)C(=O)N2c2nc(C)c(C(=O)OCC)s2)cc1OC (configuration not stated) 8.55%
CCc1ccc(NC(=O)c2ccc3c(c2)c(C)c(C)n3Cc2ccccc2)cc1 -13.7%
CC(=O)c1ccc(NC(=O)c2ccc(CN3C(=O)CCn4nc(C)cc43)cc2)cc1 -1.25%
COc1ccc(S(=O)(=O)NCCc2cn3ccsc3n2)cc1 -12.2%
Cc1ccc(CCNC(=O)CN2CCN(Cc3ccc(Cl)cc3)C2=O)cc1 -6.45%
O=C(CCC1N=C2c3ccccc3N=C(SCc3cccc(F)c3)N2C1=O)NCc1ccc(F)cc1 (configuration not stated) -2.43%
CCc1ccc(NC(=O)Cn2nnc(C(=O)Nc3cc(C)ccc3OC)c2N)cc1 -6.97%
O=C(Nc1ccccc1Br)N1CCN2CCCCC2C1 (configuration not stated) -12%

From PubChem BioAssay AID493208 (National Center for Advancing Translational Sciences (NCATS), 2011)
